Here are results for seven compounds from patent publication US20200338132A1, “COMPOSITIONS AND METHODS FOR THE EXPANSION OF HEMATOPOIETIC STEM AND PROGENITOR CELLS AND TREATMENT OF INHERITED METABOLIC DISORDERS” (Magenta Therapeutics Inc., priority 2018, published 2020).

In one experiment the test system is cord blood CD34+ cells. Nature of the experiment: phenotypic expansion of cord blood CD34+ cells, CD90+ cell number at optimal concentrations. Conditions: relative to vehicle-treated cells. The format is cell-based, human.
For experiment [1], the system named is CD90− and CD90+ sorted cells. The experiment in a line: colony formation on methylcellulose of sorted CD90− or CD90+ cells cultured with compounds. Particulars: versus vehicle; for colony formation of CD90− sorted cells: TSA 30 nM and 100 nM.
Another experiment concerns CD34+ cord blood cells. Particulars: cited from earlier work; for CD90+ cells after culturing CD34+ cord blood cells: frequently in the presence of cytokines; for CD90 expression in CD90− cells: known from the art.
The subject of experiment [2] is mobilized peripheral blood cells. Nature of the experiment: 7-day expansion of mobilized peripheral blood cells, 10-point dose response, FACS for CD34 and CD90. Conditions: after 7 days of expansion.
Another experiment deals with CD90− cells. Nature of the experiment: CD90 expression on sorted CD90− cells cultured 8 days with compounds, FACS. The format is cell-based, human. An excerpt: FIG. 20 is a diagram for an experimental protocol to determine the disconnect between phenotype and function of CD90+ cells. Unsorted cells will be sorted using CD90 and CD34 as markers, and cultured with compounds. Cultured CD34+CD90+ and CD34+CD90− cells will be phenotyped in vitro via FACS and/or assayed for colony formation on methylcelulose.
TSA and VAP (concentrations in μM, as shown).
First, unsorted cells were sorted using CD34 and CD90 into two populations, a CD34+CD90− population and a CD34+CD90+ population. CD90− cells were cultured for 8 days with DMSO, SR1, UM171 or valproic acid (VPA). These cultured cells were the phenotyped for CD34 and CD90 expression using FACS. […] Second, cells cultured with various compounds were assessed for their ability to form colonies on methylcelulose.

For experiment [3], the target named is T1, aryl hydrocarbon receptor (Homo sapiens, UniProt P35869).
T1 construct: HepG2 hepatocytes were transiently transfected with a luciferase reporter construct under the control of a promoter responsive to aryl hydrocarbon receptor signal transduction; endogenous in cells; host or cells: HepG2
T1 sequence (P35869 11-848): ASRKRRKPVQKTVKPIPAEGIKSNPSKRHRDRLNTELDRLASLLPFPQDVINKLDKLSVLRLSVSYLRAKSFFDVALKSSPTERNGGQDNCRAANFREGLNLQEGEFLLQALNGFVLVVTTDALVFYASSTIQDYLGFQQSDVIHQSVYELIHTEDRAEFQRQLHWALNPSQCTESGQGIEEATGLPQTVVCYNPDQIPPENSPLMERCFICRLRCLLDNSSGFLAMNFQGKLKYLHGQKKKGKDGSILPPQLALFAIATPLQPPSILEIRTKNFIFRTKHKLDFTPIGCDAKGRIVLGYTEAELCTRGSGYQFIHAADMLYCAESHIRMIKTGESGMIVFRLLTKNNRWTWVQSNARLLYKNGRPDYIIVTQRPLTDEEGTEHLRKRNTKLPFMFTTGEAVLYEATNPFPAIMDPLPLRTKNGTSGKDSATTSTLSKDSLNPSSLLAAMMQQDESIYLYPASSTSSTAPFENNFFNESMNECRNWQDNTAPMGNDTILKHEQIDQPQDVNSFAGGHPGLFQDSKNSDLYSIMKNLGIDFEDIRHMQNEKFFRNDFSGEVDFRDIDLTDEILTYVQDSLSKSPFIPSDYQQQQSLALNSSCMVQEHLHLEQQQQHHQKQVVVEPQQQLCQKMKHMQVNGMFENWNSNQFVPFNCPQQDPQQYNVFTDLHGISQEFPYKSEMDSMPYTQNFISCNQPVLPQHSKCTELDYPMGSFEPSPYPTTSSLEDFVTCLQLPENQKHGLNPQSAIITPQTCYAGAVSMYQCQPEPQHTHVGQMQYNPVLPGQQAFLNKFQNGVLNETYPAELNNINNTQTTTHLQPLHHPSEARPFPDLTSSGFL
Nature of the experiment: aryl hydrocarbon receptor-responsive luciferase reporter in transiently transfected HepG2 cells. The class given is cell-based. Particulars: absence or presence of agonist VAF347 (80 nM), six hours after plating. Here is the method: To determine the ability of compounds (7) and (18) to inhibit the activity of the aryl hydrocarbon receptor and to induce the proliferation of hematopoietic stem cells, a series of HSC expansion experiments were conducted. In the first experiment, compounds (7) and (18) were assessed for their capacity to attenuate aryl hydrocarbon receptor signaling. To this end, HepG2 hepatocytes were transiently transfected with a luciferase reporter construct under the control of a promoter responsive to aryl hydrocarbon receptor signal transduction. The cells were plated at a density of 25,000 cells per well in a microtiter plate. The HepG2 cells were immediately treated with compound (7) or (18) in the absence (FIG. 1) or presence (FIG. 2) of the aryl hydrocarbon receptor agonist, VAF347 (80 nM). Luciferase activity was subsequently analyzed six hours after plating.

For experiment [4], the system named is CD34+ hematopoietic stem cells. Nature of the experiment: proliferation of CD34+ hematopoietic stem cells from mononuclear peripheral blood cells, seven days. The format is cell-based. Particulars: for potency of promoting hematopoietic stem cell expansion compared to SR1: compared to potency reported for StemRegenin1; for hematopoietic stem cell growth (percentage of CD34+ cells): seven days following initial plating. Here is the method: To assess the ability of compounds (7) and (18) to induce the proliferation of hematopoietic stem cells, a population of mononuclear peripheral blood cells enriched in CD34+ cells were plated at a density of 2,350 cells per well (50 μL) in a microtiter plate in the presence of each compound. The percentage of CD34+ hematopoletic stem cells was assessed seven days following the initial plating. […] The compounds of formula (IV) and (V) described herein can thus be used to expand hematopoletic stem cells ex vivo in order to obtain sufficient quantities of such cells for in vivo applications.

In the next experiment the test system is NSG mice. Nature of the experiment: transplantation into NSG mice of human hematopoietic stem cells expanded ex vivo with the compound; peripheral blood hCD45+ and brain microglia. Conditions: NSG mice transplanted with hematopoietic stem cells expanded ex vivo in the presence of the compound. Here is the method: To investigate the ability of hematopoletic stem cells to differentiate into microglial cells and subsequently engraft in central nervous system tissue, such as the brain of a hematopoletic stem cell transplant recipient, a series of experiments were conducted in which human hematopoletic stem cells were first expanded ex vivo in the presence of an aryl hydrocarbon receptor antagonist (compound (18) or compound (26)) and were subsequently transplanted into NSG mice, in accordance with the scheme shown in FIG. 4. The frequency of human CD45+ cells in the peripheral blood of the mice was then determined, as well as the profile of microglial cells in the brain tissue using flow cytometry and immunohistochemistry techniques.
Approximately 60,000 cord blood CD34+ cells were seeded in T25 flasks at a final volume of 12 mL in HSC growth media (SFEM supplemented with Pen/Strep, 50 ng/mL FLT3L, TPO, SCF, and IL-8). […]
At the time of thaw, an equal number of cells to the starting cell cultures were injected Into NSG mice, sublethally irradiated (200 cGy) 24 hours prior to injection. […] Peripheral blood was harvested by retro-orbital bleeding at approximately weeks 4 and 8 or by cardiac puncture at week 12 or 16 or as otherwise indicated in FIG. 26 and chimerism was assessed by flow cytometry using antibodies against hCD45, mCD45, hCD33, hCD19, hCD3 and a viability dye. […]

The mark [5] stands for this setting: Scriptaid 100 nM and 300 nM, TSA 30 nM.

SMILES strings stand for the structures.

As to `Nc1ccccc1NC(=O)c1ccc(CNC(=O)OCc2cccnc2)cc1` [Entinostat], the “CD90+ cell number following expansion” value in the experiment with cord blood CD34+ cells was “increased number of CD90+ expressing cells”.
As for `Cc1cc(C)cc(C(=O)NOCCCCCC(=O)NO)c1` [LMK235], the “CD90+ cell number following expansion” value in the experiment on cord blood CD34+ cells is recorded as “increased number of CD90+ expressing cells”.
With `O=C(CCCCCN1C(=O)c2cccc3cccc(c23)C1=O)NO` [Scriptaid], the “colony formation of CD90− sorted cells” value in experiment [1] (Scriptaid 100 nM and 300 nM) is listed as “none of these cultured cells were able to form colonies better than the vehicle alone”. In addition, in experiment [1] (setting [5]), the “colony formation of CD90+ sorted cells” value was “able to form colonies, at least at approximately the same level as vehicle alone”.
Take `CC(/C=C/C(=O)NO)=C\[C@@H](C)C(=O)c1ccc(N(C)C)cc1` [TSA, trichostatin A]: in experiment [1] (Scriptaid 100 nM and 300 nM), the “colony formation of CD90− sorted cells” value is “none of these cultured cells were able to form colonies better than the vehicle alone”. Besides, the “colony formation of CD90+ sorted cells” value in experiment [1] (setting [5]) was “able to form colonies, at least at approximately the same level as vehicle alone”. Also, the “colony formation of CD90+ sorted cells” value in experiment [1] (TSA 100 nM) is recorded as “exception”. Further, in the experiment with CD34+ cord blood cells, the “CD90+ cells after culturing CD34+ cord blood cells” value is on record as “increase in CD90+ cells” and the “CD90 expression in CD90− cells” value is on record as “upregulate CD90 in CD90− cells”. Also, in experiment [2], the “number of CD90+ cells” value is given as “greatest increase in the number of CD90+ cells”.
As for `CCCC(CCC)C(=O)O` [VPA, valproic acid], the “CD90 expression of sorted CD90− cells after culture” value with CD90− cells was “gained CD90 expression”. Further, in the experiment on cord blood CD34+ cells, the “CD90+ cell number following expansion” value was “increased number of CD90+ expressing cells”. In the experiment with CD34+ cord blood cells, the “CD90+ cells after culturing CD34+ cord blood cells” value was “increase in CD90+ cells” and the “CD90 expression in CD90− cells” value is listed as “upregulate CD90 in CD90− cells”. In addition, the “number of CD90+ cells” value in experiment [2] is “greatest increase in the number of CD90+ cells”.
In the case of `CCC(C)c1cnc2c(NCCc3c[nH]c4ccccc34)cc(-c3cncc(F)c3)cn12` (stereo not shown) [compound (7)], the “aryl hydrocarbon receptor activity (aryl hydrocarbon receptor-driven expression of luciferase)” value in experiment [3] is reported as “capable of suppressing aryl hydrocarbon receptor activity even in the presence of the activator VAF347”. In experiment [4], the “potency of promoting hematopoietic stem cell expansion compared to SR1” value was “potency greater than that reported for StemRegenin1” and the “hematopoietic stem cell growth (percentage of CD34+ cells)” value is on record as “potentiating hematopoletic stem cell growth in a dose-dependent manner”.
With `CCC(C)c1cnc2c(NCCc3c[nH]c4ccccc34)nc(-c3cncc(F)c3)cn12` (stereo not shown) [compound (18)], the “aryl hydrocarbon receptor activity (aryl hydrocarbon receptor-driven expression of luciferase)” value in experiment [3] is “capable of suppressing aryl hydrocarbon receptor activity even in the presence of the activator VAF347”. Further, in experiment [4], the “potency of promoting hematopoietic stem cell expansion compared to SR1” value is listed as “potency greater than that reported for StemRegenin1” and the “hematopoietic stem cell growth (percentage of CD34+ cells)” value is reported as “potentiating hematopoletic stem cell growth in a dose-dependent manner”. The “frequency of hCD45+ cells in peripheral blood” value in the experiment with NSG mice was “increased frequency of hCD45+ cells in peripheral blood”.
